Results on 63 sequences are retold here after the supplement of paper PMC10681739.

Whole data set: some 2,700 sequences, median “arbitrary fluorescence units” near 4,100, cut for the highest 2% near 54,000. The list shows a part of the results.

The target of this assay is T1, ETS1 (UniProt P14921).
T1 sequence: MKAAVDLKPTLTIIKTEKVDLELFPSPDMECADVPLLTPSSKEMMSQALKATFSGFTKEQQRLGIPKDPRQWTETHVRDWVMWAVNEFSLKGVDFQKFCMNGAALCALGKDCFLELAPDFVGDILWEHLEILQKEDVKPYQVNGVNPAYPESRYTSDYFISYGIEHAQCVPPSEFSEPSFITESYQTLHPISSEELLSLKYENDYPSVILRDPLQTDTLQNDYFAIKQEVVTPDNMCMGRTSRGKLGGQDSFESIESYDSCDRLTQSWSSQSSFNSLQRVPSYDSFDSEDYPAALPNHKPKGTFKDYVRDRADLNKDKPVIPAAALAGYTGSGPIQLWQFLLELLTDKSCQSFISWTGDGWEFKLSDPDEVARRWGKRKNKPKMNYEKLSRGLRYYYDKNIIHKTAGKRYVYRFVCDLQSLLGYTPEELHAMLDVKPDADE
Put plainly: ETS1 binding intensity (PBM fluorescence) (arbitrary fluorescence units); higher = stronger binding. Conditions: ETS1 concentration 10 nM. On the procedure:
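gcPBM on wild-type 36-bp genomic probes with two neighbouring ETS1 sites (4-24 bp apart). Recombinant human ETS1 (10 nM) was detected with anti-ETS1 antibody fluorescence. Values are medians over 3 replicate spots. The probes sit in constant array flanks that are not printed.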
Sequence AGAGTGTTCCGGGCCGGGCTGGGGTCCGGAACGAGT came in with an ETS1 binding intensity of 975. With CACTAGCATCCTGCTGCAGCTGACCAGGATGTACTC, the ETS1 binding intensity is 8280. Sequence TAAAGGTGAGAGAGGAAGCAGGAAGTGGCATGATCC displayed an ETS1 binding intensity of 2630. Consider CTGGAGACTTCCTCCCACAGCCCCCTTCCTGCATGC, for which the ETS1 binding intensity turned out to be 5820. In the case of CCAAGCAGATTCCGGTGCCATGTTTCCTGTATAGCC, the ETS1 binding intensity came out at 7160. With GTAGCTCACAGGATAACCTTGTTTCCTGTGATTTTG the figure was 1790; with CCCGGGCCTCTTCCGCCTCCGTTTCCTCAGCTGCCG, 7960; with TGAAAGTCCTTTTCCTGGCACATCCTGGCTCAAAAA, 3000. In turn, GACGGTAGAAGCGGAAAAGTTTCCGAAAGGCGTCCT showed an ETS1 binding intensity of 328. Next, TTGATGGCATCCACTTCCTTCCTGCCCCTCCAGGAG: 5750; TCCGGGCGGAAGTGAGGCGCCCAGCGGAACGGCCTC: 10300; GGTTTGACTTCCGGACTAGGTGGCTTCCTCCCTTCA: 41500. For the sequence CACCCGGAGCGCCGGAAAAAGGAAACCGGCTCGGCG, the ETS1 binding intensity turned out to be 751. Take CATGTATCAGGAAAATGACTTGTTTCCTTTTCACAT: the ETS1 binding intensity came out at 216. Sequence CAGAAGAAAAGGAAATTATCATTTCCCTGCTTGTCT yielded an ETS1 binding intensity of 682. With GGCGCTGGCAAATCCGGCCCAGGATGTAGAGCTGGC the figure was 1900.

TTTCCCTGGTGTTTCCTCTCAGGAAGGGCCGTGTGA registered an ETS1 binding intensity of 1180.

As for CTGGCCCAGGAGGAAGTGAGAGGAAGCAAAGTGAGA, the ETS1 binding intensity stood at 784.

As for AGAGGCTGCAGGAAGCTGGTGACTTCCCTGAAAATT, the ETS1 binding intensity turned out to be 1570.

TGACAAGAGCCGGAACCGTCACTTCCGGCGGCGCGG gave an ETS1 binding intensity of 24700. Turning to TCTCCGTGGCAACGGAAACTTCCCGCGCTACGGCGG, the ETS1 binding intensity stood at 348.

With GGCCATCCTGCCATACCCCGCCATGCTCGGATGCCC, the ETS1 binding intensity amounted to 4700. The sequence CCAGAATAGCTTCCGAGTCAGCCGGAAGTGACCCTC gave an ETS1 binding intensity of 7950. The sequence AGTGGGGACTCAGGATGCACGGAAAAGATAACGTCG displayed an ETS1 binding intensity of 204. Next, GACAGGAAGGGCCTAATACTGCAAGCCAGGAAGTTT: 1650; AAGCTGCTGGGTATCCGCGCCGGAACCGCGAGGGGG: 240.

As to TAAAAAGGAACATCCTCTCCCATCCTGGGCGTGCTG, the ETS1 binding intensity was 4260. Consider CCCTGGGGCCCGGAAACCGTTTTCCGGTCTTTCGCT, for which the ETS1 binding intensity worked out at 10200. CTCGAGTTTCCTGGGCTTTGATCACCGGAAGTACAT came in with an ETS1 binding intensity of 8990. Next, TTCCTGAGCAGGAAGATGAAACAGGAAATGCAACAA: 3980; CCGCAGTTTCCGCCGCGATAGGGGCTTCCCGTGCGT: 13200. In the case of TCTGACTTCCTCTGGGGAGCCAGATGGGGAAGTGTG, the ETS1 binding intensity was determined as 13300. With ACATAGTTCCGGCTCGCTGAGCTCGGCGGAAGGAGA, the ETS1 binding intensity amounted to 6970. CTCCAGAGCACTTCCTGGCCCAGGAAAGCAGCAAGC: the ETS1 binding intensity is 12500. As to GCCTCTCGGAAGCAATCTTTCGGGACGGAAGTTAAG, the ETS1 binding intensity turned out to be 523. Turning to AGAAATCAGGAAATAGCTGATGAAGGAAGTGGTTTT, the ETS1 binding intensity worked out at 2120. In the case of TCCGGCGCACTTCCGTACCCCTCTTCCGGCGCACTC, the ETS1 binding intensity stood at 16800. With GGAGAAGAGGAAGCTCCGCCTCGCTTCCCGGTATTG the figure was 699; with ATTTACCGGATTACTAGCAAATTCAGGAAATGAGCC, 469.

CGTCCCCAGGTTTCCGGCAGGCTTCCGCACTCACAG showed an ETS1 binding intensity of 8590.

In turn, AACACGGATGTTTGCATTCCACAGGGATTCCTGTTG registered an ETS1 binding intensity of 397. As to GCACCAACATCCTGTCTGCCCTGTTTCCTACTGAGG, the ETS1 binding intensity turned out to be 35600. As for GTGATGCATCCTGCCATGCAGGGCACATCCTGAAAG, the ETS1 binding intensity stood at 9450. With CATACTGCAGGAAGGAGCAACATTTCCTGCATTTGT the figure was 1950; with GCAGAGCGGAAGCGGCGGCGGGAGCTTCCGGGAGGG, 12400; with AGACCCGGATGTAGGCAAAAACTACATTTCCCAGAA, 8580. Next, AGATGGGAAGTAGGAGAAAATGCTCTCTTCCTGTTT: 1200.

In turn, ATCTGCAGGATGTAAGAAGAATAGAAGGAAGCTGGG registered an ETS1 binding intensity of 1930. Turning to AACCAACAACTTACTTCCTTCCGGGTTTGGTGCAGA, the ETS1 binding intensity is 5690. In turn, TTGGGCTTCCGGAGCCAAAAGGCCCCGGAAGTGGTC registered an ETS1 binding intensity of 17500. Sequence CCCTCACTTCCTGCCACGCAGCCTGCTTCCTAGCCG gave an ETS1 binding intensity of 29300.

Consider CACAGAGAGGAAACGGAGGTGCCCGGAATGTTGATA, for which the ETS1 binding intensity turned out to be 523. On to GGGCCGCGGAACCGGACCGGCCGCGTTTCCGCAGCC, for which the ETS1 binding intensity was found to be 262. With GAGCTCCCGGAAGTTGCCGGACCCGGAACGCAGGCG the figure was 11000. Sequence AAATTGAACAGCGGAAGTACTTCCTTGGTCGGACCC registered an ETS1 binding intensity of 13900.

AACCCACAGGAAGCTCACATGCTATTTCCTAGACAC: the ETS1 binding intensity was 2020. GTCGGGAGGGGAAGTGAGGCGGTTTCCTCGGCGCCT: the ETS1 binding intensity was 755. With TTTACTGACAGGAAGCCATCAAGGAAATAGTTGCCT the figure was 2000; with AAGAAGCGAGACTTCCTCCCTTCCTGCTGCCTGGCT, 6600; with GCGGCTTGGGCCTTCCGGCTTTCCGTCCGCCGCGGC, 7060. CGGGGTTGCCTGTTTCCTCTTCCCATTATTCCGGCC gave an ETS1 binding intensity of 1440. As for AGGTGGGCTTCCTGCTTCTCCTCTCATCCTGGGTCC, the ETS1 binding intensity was determined as 9680.

TATTGCATTTAGGGAAGTGTTTCCGTCTTGGTTTGC yielded an ETS1 binding intensity of 1190.
